Test results from patent US20230212210A1 (priority 2020, published 2023).

Molecular target: T1, DC-SIGN (Homo sapiens, UniProt Q9NNX6)
T1 sequence (Q9NNX6 1-404): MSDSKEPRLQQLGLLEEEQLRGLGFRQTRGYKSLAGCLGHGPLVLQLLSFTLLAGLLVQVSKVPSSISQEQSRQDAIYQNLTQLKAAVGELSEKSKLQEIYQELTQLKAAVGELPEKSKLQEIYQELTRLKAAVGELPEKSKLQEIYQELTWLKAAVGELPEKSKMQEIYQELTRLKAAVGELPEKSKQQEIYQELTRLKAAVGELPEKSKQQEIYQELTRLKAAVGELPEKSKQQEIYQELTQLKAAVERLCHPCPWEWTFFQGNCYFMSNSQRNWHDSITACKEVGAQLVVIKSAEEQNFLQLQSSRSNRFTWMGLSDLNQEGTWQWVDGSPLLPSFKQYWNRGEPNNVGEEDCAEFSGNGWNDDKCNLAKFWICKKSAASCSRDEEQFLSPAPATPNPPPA
Assay: Binding of DC-SIGN to an O-sugar chain chip
Details: Cy3-labelled DC-SIGN
Protocol: The O-sugar chain chip and HMO chip used in the present application were purchased from Nanjing Creative Biochip Co., Ltd.
1 mg/mL S1 subunit sample and 1 mg/mL DC-SIGN sample were respectively prepared. 100 μL of sample was added to 25 μL of labeling reaction solution at 5-fold diluted concentration (containing 130 mM NaHCO3 and 50 mM NaCl, pH=8.2-8.3), an appropriate volume of Cy3-Se (cyanine 3 succinimidyl ester, an N-hydroxysuccinimide activated anthocyanidin 3 fluorescent dye) fluorescent dye (10 mg of Cy3-Se/1 mL of dimethyl sulfoxide), 0.5 μL of fluorescent dye was correspondingly added to the S1 subunit sample, 0.9 μL of fluorescent dye was correspondingly added to the DC-SIGN sample, and the mixtures were slightly shaken to form uniform reaction solutions.
2) The reaction solutions were shaken on a shaker for 1 h.
3) Dialysis after labeling: 125 μL of each reaction solution was injected into a mini dialysis tubing.
4) The reaction solutions were respectively stirred 3 times in a dialysis buffer solution (300 mL×3) in the dark, and each stirring was performed for 1 h (after the last stirring, the reaction solutions were placed overnight).
Concentration of samples to be analyzed: the 2 samples were denoted as No. 1 and No. 2 samples, respectively. The No. 1 sample referred to the S1 subunit, and the No. 2 sample referred to DC-SIGN. The above No. 1 and No. 2 samples were subjected to serial dilution to form samples at different test concentrations.
Specific dilutions were as follows: at the first dilution, the samples were diluted to a concentration of 10 μg/mL (the volume of each sample was 250 μL); at the second dilution, the samples were subjected to 1-fold dilution to a concentration of 5 μg/mL (the volume of each sample was 250 μL); at the third dilution, the samples were subjected to 1-fold dilution to a concentration of 2.5 μg/mL (the volume of each sample was 250 μL); and at the forth dilution, the samples were subjected to 1-fold dilution to a concentration of 1.25 μg/mL (the volume of each sample was 250 μL).
The corresponding arrangement of the samples at different test concentrations on an 8-subarray microarray chip is shown in Table 3.
Fences for analysis were mounted on the chip. A blocking buffer solution was added to each subarray. For an 8-subarray chip (referring to a glass substrate with 8 printed sugar chain areas, which contain the same sugar chain and are used to detect 8 different samples at the same time), 200 μL of buffer solution added to each subarray.
The subarrays were sealed with a plastic film to prevent evaporation of the blocking buffer solution, and incubated on a rotary shaker (at 60 rpm) for 30 min.
The samples to be analyzed were added to each subarray immediately. For the 8-subarray chip, 200 μL of sample was added to each subarray. The sample solution should cover the entire area of each subarray without producing air bubbles in the sample solution.
The microarray chip was sealed with a plastic film to prevent evaporation of the sample solution, and covered with aluminum foil and incubated in the dark for 1 h (on a shaker at 80 rpm).
A washing buffer solution was added to each subarray. For the 8-subarray chip, 200 μL of buffer solution was added to each subarray. The microarray chip was sealed with a plastic film, and incubated on a shaker (at 80 rpm) for 5 min. The washing buffer solution was removed immediately by using a pipette, and the above steps were repeated.
After the washing buffer solution was completely removed, the fences for analysis were unmounted from the chip, the glass slide was immersed in a washing buffer solution, and the chip was incubated on a shaker (at 80 rpm) for 10 min.
The glass slide was immersed in deionized water, and the chip was incubated on a shaker (at 80 rpm) for 2 min.
Before data scanning, the chip was dried in a clean and dust-free environment.
FIG. 9 is a diagram of the binding of the DC-SIGN protein to the O-sugar chain chip. […]

| Compound | Binding of DC-SIGN to an O-sugar chain chip, RFU [RFU] |
| --- | --- |
| CC(=O)N[C@@H]1[C@@H](O[C@@H]2O[C@H](CO)[C@@H](O[C@@H]3O[C@H](CO)[C@H](O)[C@H](O)[C@H]3O[C@@H]3O[C@@H](C)[C@@H](O)[C@@H](O)[C@@H]3O)[C@H](O[C@@H]3O[C@@H](C)[C@@H](O)[C@@H](O)[C@@H]3O)[C@H]2NC(C)=O)[C@@H](O)[C@@H](CO)O[C@@H]1O [O33, Fucα1-2Galβ1-4(Fucα1-3)GlcNAcβ1-3GalNAcα] | 124.5 |
| Fucα1-2Galβ1-4(Fucα1-3)GlcNAcβ1-3Galβ1-3GalNAcα [O20] | 135 |
| Fucα1-2Galβ1-4(Fucα1-3)GlcNAcβ1-6GalNAcα [O46] | 65.83 |
| Galβ1-4(Fuca 1-3)GlcNAcβ1-3 GalNAcα [O32] | 68.83 |
| Galβ1-4(Fuca 1-3)GlcNAcβ1-3 GalNAcα [O44] | 69 |
| Galβ1-4(Fucα1-3)GlcNAcβ1-3Galβ1-3GalNAcα [O19] | 83.33 |
